Consider 1 protein from doi:10.1101/2024.08.19.608523 (bioRxiv, 2024).

The data set deals with the molecule itself. Kind of data set: SEC.

B1: full-length GAS2 (GAS2-FL ([…])) (natural protein)
chain: not shown
Regarding B1, the stoichiometry N (usually a count of units in the complex or per binding partner) is 2.
